Measurements from the supplement of paper PMC10126150.
Values marked as one replicate rest on one cluster of the flow cell; about a third of the high ones do not repeat.
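Further: ATP exposure 15 min at 22 °C before imaging.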

These sequences were tested on ATP (assay: switch fluorescence ratio, 500 uM ATP over buffer (Cy3 cluster intensity, sum of 5 cycles each) (fold (ratio)); higher = stronger signal-on switching upon ATP binding; sequences stand for … in TCGTCGGCAGCGTCAGATGTGTATAAGAGACAGTTTTTTTTTTTTTTTTTTTTTTTTT…TC). Details: aptamer strand: ATP DNA aptamer (quencher-CACCTGGGGGAGTATTGCGGAGGAAGG + anchor), 100 nM annealed; ATP concentration: 500 uM; one replicate.
How it was run: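 Clusters carrying Cy3-labelled switching strands on a modified Illumina MiSeq flow-cell were annealed to 100 nM quencher-labelled ATP aptamer and imaged in selection buffer. They were imaged again after 15 min with 500 uM ATP at 22 °C, over five buffer/ATP cycles with NaOH stripping and re-annealing in between. For each cluster, the fluorescence ratio is the summed Cy3 intensity of the target cycles divided by that of the buffer cycles, averaged per switch-domain sequence. Clusters outside 100-1000 RFU were left out.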
TGACTAAGTA gave a switch fluorescence ratio of 1.06.
With TGACTACAAA the switch fluorescence ratio was 1.
Sequence TGACTCCCGT has a switch fluorescence ratio of 1.12.
Sequence TGACTCCG has a switch fluorescence ratio of 1.08.
TGACTCCGG showed a switch fluorescence ratio of 2.32.
In the case of TGACTCGGGG, the switch fluorescence ratio is reported as 0.969.
Work on TGACTCTCGG yielded a switch fluorescence ratio of 1.06.
TGACTGCTTC showed a switch fluorescence ratio of 1.
TGAGAAAACG showed a switch fluorescence ratio of 0.966.
TGAGAACAAG was tested, and the switch fluorescence ratio was 0.986.
TGAGAAGATG gave a switch fluorescence ratio of 1.01.
TGAGACACCC gave a switch fluorescence ratio of 1.1.
For TGAGAGATTA, the switch fluorescence ratio was 0.978.
TGAGAGCAGA was tested, and the switch fluorescence ratio was 0.993.
TGAGAGCCTT was tested, and the switch fluorescence ratio was 1.01.
With TGAGAGGCTA the switch fluorescence ratio was 0.97.
TGAGAGTTGA was tested, and the switch fluorescence ratio was 1.02.
Work on TGAGATAATT yielded a switch fluorescence ratio of 1.04.
For TGAGCATTCG, the switch fluorescence ratio was 1.09.
For TGAGCCCCCG, the switch fluorescence ratio was 1.01.
TGAGCCTGGT gave a switch fluorescence ratio of 0.999.
TGAGCGCCAG showed a switch fluorescence ratio of 1.02.
With TGAGCGTGT the switch fluorescence ratio was 1.05.
Work on TGAGCTTGCG yielded a switch fluorescence ratio of 1.04.
Sequence TGAGGACGCT has a switch fluorescence ratio of 1.14.
TGAGGCAGCG showed a switch fluorescence ratio of 1.14.
Work on TGAGGCGTGT yielded a switch fluorescence ratio of 1.05.
Sequence TGAGGCTGAA has a switch fluorescence ratio of 0.959.
Sequence TGAGGGCC has a switch fluorescence ratio of 0.996.
Sequence TGAGGGCCAG has a switch fluorescence ratio of 0.976.
TGAGGGCTCT was tested, and the switch fluorescence ratio was 0.971.
For TGAGGGCTG, the switch fluorescence ratio was 1.02.
TGAGGTGCAA gave a switch fluorescence ratio of 1.07.
In the case of TGAGTAGGCA, the switch fluorescence ratio is reported as 0.961.
TGAGTAGGT was tested, and the switch fluorescence ratio was 0.972.
Sequence TGAGTCACGA has a switch fluorescence ratio of 1.
In the case of TGAGTCTAGC, the switch fluorescence ratio is reported as 1.07.
For TGAGTCTATG, the switch fluorescence ratio was 1.02.
TGAGTGCGTT was tested, and the switch fluorescence ratio was 1.04.
Work on TGAGTGGCGC yielded a switch fluorescence ratio of 1.12.
Sequence TGAGTTGGAT has a switch fluorescence ratio of 1.
With TGAGTTTAAG the switch fluorescence ratio was 0.975.
Sequence TGAGTTTACG has a switch fluorescence ratio of 1.05.
With TGAGTTTATG the switch fluorescence ratio was 0.958.
Work on TGATACTGTA yielded a switch fluorescence ratio of 1.1.
Sequence TGATAGTAGG has a switch fluorescence ratio of 0.988.
Sequence TGATATCCGG has a switch fluorescence ratio of 0.955.
TGATATGTCG was tested, and the switch fluorescence ratio was 0.857.
TGATATTCTT was tested, and the switch fluorescence ratio was 0.952.
With TGATCATCGG the switch fluorescence ratio was 0.979.
TGATCCAAAA gave a switch fluorescence ratio of 1.
In the case of TGATCCCCGA, the switch fluorescence ratio is reported as 1.01.
In the case of TGATCCGATA, the switch fluorescence ratio is reported as 1.01.
TGATCCGTAC showed a switch fluorescence ratio of 1.73.
With TGATCCGTTC the switch fluorescence ratio was 1.04.
TGATCGTGTT showed a switch fluorescence ratio of 1.01.
In the case of TGATCGTTTG, the switch fluorescence ratio is reported as 0.93.
Work on TGATCTAAGT yielded a switch fluorescence ratio of 0.995.
TGATCTCCG gave a switch fluorescence ratio of 1.2.
TGATCTCCTT gave a switch fluorescence ratio of 0.959.
In the case of TGATCTGGGA, the switch fluorescence ratio is reported as 1.15.
TGATGAGATA gave a switch fluorescence ratio of 1.02.
Work on TGATGAGGTG yielded a switch fluorescence ratio of 0.994.
Work on TGATGCAATG yielded a switch fluorescence ratio of 1.63.
In the case of TGATGGGTCT, the switch fluorescence ratio is reported as 1.04.
For TGATGGTCTT, the switch fluorescence ratio was 1.02.
With TGATGGTTAA the switch fluorescence ratio was 1.06.
TGATGTCAGG showed a switch fluorescence ratio of 1.04.
TGATGTCTGC was tested, and the switch fluorescence ratio was 0.975.
Work on TGATGTTTAG yielded a switch fluorescence ratio of 1.01.
TGATTACGAG showed a switch fluorescence ratio of 1.04.
For TGATTATAAA, the switch fluorescence ratio was 1.04.
TGATTCAGAC was tested, and the switch fluorescence ratio was 0.974.
Work on TGATTCATCA yielded a switch fluorescence ratio of 0.972.
Sequence TGATTCCC has a switch fluorescence ratio of 0.978.
TGATTCGGAA gave a switch fluorescence ratio of 1.12.
